According to the supplement of paper PMC3334620:
The full ranking holds about 33,000 sequences; the median of “E-score (-0.5 to 0.5)” is about -0.054, and the highest 2% start at about 0.35. The list shows a part of the results.

molecular target: T1, Stb5 (UniProt P38699); experiment: PBM E-score (8-mer binding enrichment) (E-score (-0.5 to 0.5)); higher = stronger / more preferred TF binding; most listed sequences are background and not binding sites; details: protein concentration: 200 nM; construct: GST-full length
T1 sequence: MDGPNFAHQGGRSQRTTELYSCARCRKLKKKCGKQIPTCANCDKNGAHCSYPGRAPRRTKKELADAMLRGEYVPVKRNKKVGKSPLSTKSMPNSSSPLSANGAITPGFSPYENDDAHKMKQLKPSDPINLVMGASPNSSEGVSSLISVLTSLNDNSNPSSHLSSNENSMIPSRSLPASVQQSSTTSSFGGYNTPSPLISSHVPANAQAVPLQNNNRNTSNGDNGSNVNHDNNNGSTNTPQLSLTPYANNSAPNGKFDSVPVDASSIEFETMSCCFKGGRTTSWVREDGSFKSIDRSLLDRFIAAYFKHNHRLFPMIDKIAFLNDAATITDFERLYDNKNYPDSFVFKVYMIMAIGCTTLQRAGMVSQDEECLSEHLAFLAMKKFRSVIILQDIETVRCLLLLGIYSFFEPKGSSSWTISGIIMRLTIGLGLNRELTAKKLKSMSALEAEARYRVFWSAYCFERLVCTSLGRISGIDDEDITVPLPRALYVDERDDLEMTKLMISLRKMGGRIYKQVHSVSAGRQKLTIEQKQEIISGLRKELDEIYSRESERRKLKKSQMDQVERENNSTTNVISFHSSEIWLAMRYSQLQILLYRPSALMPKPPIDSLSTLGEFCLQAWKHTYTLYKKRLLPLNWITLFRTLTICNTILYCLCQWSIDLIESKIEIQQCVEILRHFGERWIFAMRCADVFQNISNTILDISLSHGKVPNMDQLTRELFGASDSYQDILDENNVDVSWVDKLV
In short: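 Using PURExpress in vitro transcription/translation, GST-tagged yeast transcription factors were made in full-length or DNA-binding-domain form. These were applied at about 100-200 nM to double-stranded universal all-10-mer Agilent arrays, and bound protein was detected with fluorescent anti-GST. Scans were normalised with masliner before the Universal PBM Analysis Suite assigned E-scores to ungapped eight-base words pooled with their reverse complements.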

Sequence	PBM E-score
AACCGGGA	0.125
GAACACAC	-0.0424
CAATGGTC	0.105
CAAATCCG	0.102
ATCAACTG	-0.0648
ACAGCCTA	-0.279
GCCGTTAA	0.237
AAGAGGTC	-0.15
CTTTGCAC	-0.0129
ACATAGCG	0.0971
GCATCCTA	-0.0379
CAGGAGAC	-0.138
CCCCTATC	-0.146
GAAGAGCC	0.129
AGTCCGTA	0.284
ATATAGTG	0.0801
ACTCGCAC	-0.123
ACCGCACG	0.153
AATGTTCC	0.107
CCCGTCGG	0.435
CAATTGCG	-0.0919
GTTCACTA	-0.0296
GCCCCAAC	-0.0501
AGGTCATC	0.0432
GCGTTCAA	-0.139

Sequence	PBM E-score
TCAAGTAA	-0.0626
CTTAAATC	0.173
ATAAGCCG	0.0226
CTCGTTCA	-0.0257
CCTAAAAA	0.0102
TGGCAAAA	-0.0799
CCAGTTAC	-0.187
ATCCCAGG	-0.00529
ACGAAGTG	-0.147
ATTTGTGG	0.00692
ACAATTAT	-0.0661
ACCAGACT	-0.226
AAGATTAT	0.101
AATTTAGA	-0.101
GATTATTA	0.0913
TAATACAA	-0.0433
CCGGGTCC	0.183
GTTGCAGA	-0.115
TTCTACAA	-0.107
TCCCTTAA	-0.254
TAGGTATA	-0.039
GAATGGAC	-0.112
CCGTATTA	0.242
AAATATGC	-0.0724
AAATCCCA	-0.156

Sequence	PBM E-score
CCAACCGC	0.0525
TCCGCCCA	0.308
GGTGGCTA	0.0123
GGATCTGA	-0.0127
ATTCGTCA	-0.181
ACCCTGAC	-0.0664
AGTATCTA	-0.212
AGTGTGCG	-0.159
CCTTAGGC	-0.0302
ACGATTCC	0.0287
ATGGTGTC	-0.0208
ATGGTATC	-0.0203
GTTATTGA	-0.106
CAATGGGA	0.0877
CATAGGCA	-0.17
CGCCTAGA	-0.0259
GGGAAGTA	0.0165
GGTCCTAA	0.3
TCCCCGAA	0.266
ACGACTCA	-0.24
CAATCGCA	-0.0763
CGCCCACG	0.134
CCGCTGTA	0.295
GACGCATC	-0.126
GTCACTTA	-0.02

Sequence	PBM E-score
TTAATTAA	-0.00647
ATGGGCCG	0.16
GCAGTCGC	-0.122
GGCCGTGA	0.101
ATAGGGGA	-0.166
ATATGCGC	0.0554
ATATCATA	0.0356
GACGTTGC	-0.0822
ATGAGGCA	-0.24
CTTATAGC	0.00833
CATCCAAC	-0.126
AGGTACCC	-0.294
AAGTCCCC	-0.0331
CATAGTAG	-0.17
CTATGAGC	-0.125
TAGCTAGA	-0.148
AAGTACGG	0.165
AACCCGGG	0.262
GAGGGTGA	-0.139
AATGCCGC	0.448
CGGCACCG	0.342
GAACAACC	-0.0126
CACGACTC	-0.137
CAAACTTG	0.0371
CAATGCTC	-0.22

Sequence	PBM E-score
ATTGTAAG	-0.108
ACTACAGG	-0.0347
CAGAGGGC	0.0204
ACTCGGAC	0.194
ATGACGAA	-0.0403
CTACCAGC	-0.113
ACTAAGCT	-0.175
CACCACCG	0.21
AGACTGCC	-0.0891
AGCCAGTC	-0.14
CCGTGGGC	0.248
AGAAGCGG	0.316
AGTATGAA	-0.0275
AGTTTGAG	0.0948
AGAATGAA	-0.181
TAGTTGGA	0.104
AGACGGTA	0.238
TCGGCTAA	-0.095
AACCCGTT	0.213
GCTCAGAC	-0.0986
ACTCGAGT	-0.116
CACCCAGC	0.051
AAAACGGG	0.29
AGGCAGCC	-0.25
AATTGGGG	-0.101

Sequence	PBM E-score
GAAGCTCA	-0.22
CGCCTCCC	-0.135
GAAGAGCA	-0.204
ACGCGCAC	-0.102
CTTGCTTA	-0.245
ATCCACCA	-0.288
CAAGAGCA	-0.165
CCACGCAA	-0.0134
GAAAAGGC	0.0848
AACCCGGT	0.29
ATATGCCA	-0.0131
TACACCGA	0.414
TCAACAAA	0.0749
GTGCCTGA	-0.0161
AACACATA	-0.222
ACACGGTA	0.144
ACAACGGT	0.28
ATATGGGC	0.0563
TAGCTGCA	-0.191
AAACGATG	-0.0501
CCACCGAC	0.346
AATCCTGC	-0.16
TACAGATA	0.048
AAAGAGAT	-0.225
ATTCGTAA	-0.0579

Sequence	PBM E-score
GATACCGC	0.35
ATCATGTA	-0.236
CGTCACAA	0.109
CGAGACCA	-0.245
CAGTTAGA	-0.165
AAGAACTC	-0.167
GCCTGAGA	-0.113
ATGTCATG	-0.0574
TATACACA	-0.0461
GCAAGCAC	-0.205
ATTCTATA	0.00785
TCCTATCA	0.129
ATACGCTG	-0.0604
CTAAGGTC	-0.0598
GGACGAGA	-0.0868
CATGGGCG	0.114
CTACAAGC	-0.0669
ACAAAATG	-0.0269
GGTAGCGA	-0.144
CTCGTTCC	0.0214
CGGATACA	0.251
AATTGACG	0.0476
